Test results: the supplement of paper PMC8728848
This is one part of the list.

Key:
Assay in all cases: glycan array binding signal (z-score within array); higher = stronger binding
Conditions in all cases: glycan notation: IUPAC condensed, linker removed
[1] = biological target: Fuc(a1-2)Gal(b1-4)GlcNAc(b1-2)[Fuc(a1-2)Gal(b1-4)GlcNAc(b1-4)]Man(a1-3)[Fuc(a1-2)Gal(b1-4)GlcNAc(b1-2)Man(a1-6)]Man(b1-4)GlcNAc(b1-4)GlcNAc
Procedure, shortened: (§1)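 Glycan array data were curated from 3228 arrays in the Consortium for Functional Glycomics database and kept only where the protein sequence was available. Glycan names were converted to IUPAC-condensed notation, and columns mapping to the same glycan were averaged. The binding signal is a within-array Z-score, averaged across arrays of the same protein sequence at different concentrations or buffers and across linkers. Negative Z-scores can be read as non-binding.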

[2] = biological target: Fuc(a1-2)Gal(b1-4)GlcNAc(b1-3)Gal(b1-4)GlcNAc
Procedure, shortened: as §1

[3] = biological target: Fuc(a1-2)Gal(b1-4)GlcNAc(b1-3)Gal(b1-4)GlcNAc(b1-2)Man(a1-3)[Fuc(a1-2)Gal(b1-4)GlcNAc(b1-3)Gal(b1-4)GlcNAc(b1-2)Man(a1-6)]Man(b1-4)GlcNAc(b1-4)GlcNAc
Procedure, shortened: as §1

[4] = biological target: Fuc(a1-2)Gal(b1-4)GlcNAc(b1-3)Gal(b1-4)GlcNAc(b1-3)Gal(b1-4)GlcNAc
Procedure, shortened: as §1

[5] = biological target: Fuc(a1-2)Gal(b1-4)GlcNAc(b1-3)GalNAc
Procedure, shortened: as §1

[6] = biological target: Fuc(a1-2)Gal(b1-4)GlcNAc(b1-3)[Fuc(a1-2)Gal(b1-4)GlcNAc(b1-6)]GalNAc
Procedure, shortened: as §1

[7] = biological target: Fuc(a1-2)Gal(b1-4)GlcNAc(b1-3)[Fuc(a1-3)[Gal(b1-4)]GlcNAc(b1-6)]Gal(b1-4)Glc
Procedure, shortened: as §1

[8] = biological target: Fuc(a1-2)Gal(b1-4)GlcNAc(b1-6)GalNAc
Procedure, shortened: as §1

[9] = biological target: Fuc(a1-2)Gal(b1-4)GlcNAc6S
Procedure, shortened: as §1

[10] = biological target: Fuc(a1-2)Gal(b1-4)[Fuc(a1-3)]GlcNAc
Procedure, shortened: as §1

[11] = biological target: Fuc(a1-2)Gal(b1-4)[Fuc(a1-3)]GlcNAc(b1-2)Man(a1-3)[Fuc(a1-2)Gal(b1-4)[Fuc(a1-3)]GlcNAc(b1-2)Man(a1-6)]Man(b1-4)GlcNAc(b1-4)GlcNAc
Procedure, shortened: as §1

[12] = biological target: Fuc(a1-2)Gal(b1-4)[Fuc(a1-3)]GlcNAc(b1-2)Man(a1-3)[Fuc(a1-2)Gal(b1-4)[Fuc(a1-3)]GlcNAc(b1-2)Man(a1-6)]Man(b1-4)GlcNAc(b1-4)[Fuc(a1-6)]GlcNAc
Procedure, shortened: as §1

[13] = biological target: Fuc(a1-2)Gal(b1-4)[Fuc(a1-3)]GlcNAc(b1-2)[Fuc(a1-2)Gal(b1-4)[Fuc(a1-3)]GlcNAc(b1-4)]Man(a1-3)[Fuc(a1-2)Gal(b1-4)[Fuc(a1-3)]GlcNAc(b1-2)Man(a1-6)]Man(b1-4)GlcNAc(b1-4)GlcNAc
Procedure, shortened: as §1

[14] = biological target: Fuc(a1-2)Gal(b1-4)[Fuc(a1-3)]GlcNAc(b1-3)Gal(b1-4)[Fuc(a1-3)]GlcNAc
Procedure, shortened: as §1

[15] = biological target: Fuc(a1-2)Gal(b1-4)[Fuc(a1-3)]GlcNAc(b1-3)Gal(b1-4)[Fuc(a1-3)]GlcNAc(b1-3)Gal(b1-4)[Fuc(a1-3)]GlcNAc
Procedure, shortened: as §1

[16] = biological target: Fuc(a1-2)Gal(b1-4)[Fuc(a1-3)]GlcNAc(b1-3)GalNAc
Procedure, shortened: as §1

[17] = biological target: Fuc(a1-2)Gal(b1-4)[Fuc(a1-3)]GlcNAc(b1-3)[Neu5Ac(a2-6)Gal(b1-4)GlcNAc(b1-6)]Gal(b1-4)Glc
Procedure, shortened: as §1

[18] = biological target: Fuc(a1-2)Gal3S(b1-4)GlcNAc
Procedure, shortened: as §1

[19] = biological target: Fuc(a1-2)Gal6S(b1-3)GlcNAc
Procedure, shortened: as §1

[20] = biological target: Fuc(a1-2)Gal6S(b1-3)GlcNAc6S
Procedure, shortened: as §1

[21] = biological target: Fuc(a1-2)Gal6S(b1-4)Glc
Procedure, shortened: as §1

[22] = biological target: Fuc(a1-2)Gal6S(b1-4)Glc6S
Procedure, shortened: as §1

[23] = biological target: Fuc(a1-2)Gal6S(b1-4)GlcNAc
Procedure, shortened: as §1

[24] = biological target: Fuc(a1-2)[Gal(a1-3)]Gal
Procedure, shortened: as §1

[25] = biological target: Fuc(a1-2)[Gal(a1-3)]Gal(b1-3)GalNAc
Procedure, shortened: as §1

[26] = biological target: Fuc(a1-2)[Gal(a1-3)]Gal(b1-3)GalNAc(b1-3)Gal(a1-4)Gal(b1-4)Glc
Procedure, shortened: as §1

[27] = biological target: Fuc(a1-2)[Gal(a1-3)]Gal(b1-3)GlcNAc
Procedure, shortened: as §1

[28] = biological target: Fuc(a1-2)[Gal(a1-3)]Gal(b1-3)GlcNAc(b1-2)Man(a1-3)[Fuc(a1-2)[Gal(a1-3)]Gal(b1-3)GlcNAc(b1-2)Man(a1-6)]Man(b1-4)GlcNAc(b1-4)GlcNAc
Procedure, shortened: as §1

[29] = biological target: Fuc(a1-2)[Gal(a1-3)]Gal(b1-3)GlcNAc(b1-2)Man(a1-3)[Fuc(a1-2)[Gal(a1-3)]Gal(b1-3)GlcNAc(b1-2)Man(a1-6)]Man(b1-4)GlcNAc(b1-4)[Fuc(a1-6)]GlcNAc
Procedure, shortened: as §1

[30] = biological target: Fuc(a1-2)[Gal(a1-3)]Gal(b1-3)GlcNAc(b1-3)GalNAc
Procedure, shortened: as §1

[31] = biological target: Fuc(a1-2)[Gal(a1-3)]Gal(b1-3)GlcNAc(b1-6)GalNAc
Procedure, shortened: as §1

[32] = biological target: Fuc(a1-2)[Gal(a1-3)]Gal(b1-4)Glc
Procedure, shortened: as §1

[33] = biological target: Fuc(a1-2)[Gal(a1-3)]Gal(b1-4)GlcNAc
Procedure, shortened: as §1

[34] = biological target: Fuc(a1-2)[Gal(a1-3)]Gal(b1-4)GlcNAc(b1-2)Man
Procedure, shortened: as §1

[35] = biological target: Fuc(a1-2)[Gal(a1-3)]Gal(b1-4)GlcNAc(b1-2)Man(a1-3)[Fuc(a1-2)[Gal(a1-3)]Gal(b1-4)GlcNAc(b1-2)Man(a1-6)]Man(b1-4)GlcNAc(b1-4)GlcNAc
Procedure, shortened: as §1

[36] = biological target: Fuc(a1-2)[Gal(a1-3)]Gal(b1-4)GlcNAc(b1-2)Man(a1-3)[Fuc(a1-2)[Gal(a1-3)]Gal(b1-4)GlcNAc(b1-2)Man(a1-6)]Man(b1-4)GlcNAc(b1-4)[Fuc(a1-6)]GlcNAc
Procedure, shortened: as §1

[37] = biological target: Fuc(a1-2)[Gal(a1-3)]Gal(b1-4)GlcNAc(b1-3)GalNAc
Procedure, shortened: as §1

B1: MGL6A (Homo sapiens) (protein)
chain: MTRTYENFQYLENKVKVQGFKNGPLPLQSLLQRLCSGPCHLLLSLGLGLLLLVIICVVGFQNSKFQRDLVTLRTDFSNFTSNTVAEIQALTSQGSSLEETIASLKAEVEGFKQERQAVHSEMLLRVQQLVQDLKKLTCQVATLNNNGEEASTEGTCCPVNWVEHQDSCYWFSHSGMSWAEAEKYCQLKNAHLVVINSREEQNFVQKYLGSAYTWMGLSDPEGAWKWVDGTDYATGFQNWKPGQPDDWQGHGLGGGEDCAHFHPDGRWNDDVCQRPYHWVCEAGLGQTSQESH
- glycan array binding signal (z-score) [1]: -0.289
- glycan array binding signal (z-score) [2]: -0.305
- glycan array binding signal (z-score) [3]: -0.249
- glycan array binding signal (z-score) [4]: -0.248
- glycan array binding signal (z-score) [5]: -0.268
- glycan array binding signal (z-score) [6]: -0.233
- glycan array binding signal (z-score) [7]: -0.227
- glycan array binding signal (z-score) [8]: 4.02
- glycan array binding signal (z-score) [9]: -0.158
- glycan array binding signal (z-score) [10]: -0.273
- glycan array binding signal (z-score) [11]: 0.033
- glycan array binding signal (z-score) [12]: -0.255
- glycan array binding signal (z-score) [13]: -0.234
- glycan array binding signal (z-score) [14]: -0.23
- glycan array binding signal (z-score) [15]: -0.254
- glycan array binding signal (z-score) [16]: -0.238
- glycan array binding signal (z-score) [17]: -0.267
- glycan array binding signal (z-score) [18]: -0.275
- glycan array binding signal (z-score) [19]: -0.274
- glycan array binding signal (z-score) [20]: -0.194
- glycan array binding signal (z-score) [21]: -0.304
- glycan array binding signal (z-score) [22]: -0.214
- glycan array binding signal (z-score) [23]: -0.241
- glycan array binding signal (z-score) [24]: -0.261
- glycan array binding signal (z-score) [25]: -0.249
- glycan array binding signal (z-score) [26]: -0.214
- glycan array binding signal (z-score) [27]: -0.272
- glycan array binding signal (z-score) [28]: -0.303
- glycan array binding signal (z-score) [29]: -0.273
- glycan array binding signal (z-score) [30]: -0.272
- glycan array binding signal (z-score) [31]: 3.42
- glycan array binding signal (z-score) [32]: -0.266
- glycan array binding signal (z-score) [33]: -0.309
- glycan array binding signal (z-score) [34]: -0.272
- glycan array binding signal (z-score) [35]: -0.361
- glycan array binding signal (z-score) [36]: -0.263
- glycan array binding signal (z-score) [37]: -0.248
